From the supplement of paper PMC10338343
± gives the standard deviation. The list shows a part of the results, in another mix than the full data.

Tested on: MIWI (PIWIL1) piRISC loaded with L1MC piRNA (30 nt)
Test: pre-steady-state target cleavage rate (min^-1); MIWI and MILI are mouse PIWI proteins and EfPiwi is from a freshwater sponge; tags in brackets are library labels; higher = faster piRNA-guided slicing of the target
Conditions: guide: L1MC piRNA 5'p-UAACUAAAUACUAUGCAAGCUGUAGGUCCU
How it was run: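 The method was Cleave-'n-Seq, in which uncleaved targets from a transcribed, DNA-blocked target RNA library were sequenced after exposure to active affinity-purified piRISC carrying one synthetic guide, with or without GTSF1 partner protein. Reactions contained 0.1 nM library, 1 nM piRISC and, where present, 500 nM GTSF1 in HEPES–potassium acetate buffer at 33 °C for 0–8 or 0–960 min. Reads were normalised to depth and to weakly complementary targets, three trials were pooled, and k3 was capped at 0.0001 min^-1. The pre-steady-state cleavage rate came from a burst-and-steady-state fit.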

[1] = auxiliary factor: 500 nM mouse GTSF1
[2] = auxiliary factor: none (no GTSF1)

Row | Sequence | pre-steady-state target cleavage rate [1] | pre-steady-state target cleavage rate [2]
1 | UCGACCUACAGCUUGCCAUAGUAUUUAGUUA | 0.295 ± 0.032 | 
2 | UCCUCCUACACGAUGCAUAGUAUUUAGUAA | 0.42 ± 0.034 | 
3 | UCCUGGAUGUCGUUGCAUAGUAUUAAGUUA | 0.00483 ± 0.0034 | 
4 | UCGACCUACAGCUUGCAAUCUAUUUAGAAA | 0.129 ± 0.033 | 
5 | UCGACCUACAGCUUCGAUAGUAUUUACAAA | 0.0356 ± 0.013 | 
6 | UCCUGCUACAGCUUGCAUAGCUAUUUAGUUA | 0.0118 ± 0.0063 | 
7 | UCCUGGUACUCCUUGCAUAGUAUUUACAAA | 0.0182 ± 0.0084 | 
8 | UCCUGGAUGUCGAACGAUACUAUUUAGUUA | < 0.0001 | 
9 | UCCUGGAUCAGGUUGCAUAGUAUUUACAAA | 0.036 ± 0.012 | 
10 | UCCUCCUACAGCUUCCAUAGUAAUUAGUUA | 0.0848 ± 0.027 | 
11 | UCCACCUACAGCUUGCAUAGUAUUAGUUA | 0.181 ± 0.028 | 
12 | UCCUGGAACACCUUGCAUAGUAUUUUCAAA | 0.101 ± 0.025 | 
13 | UCCACCUACAGCAACCAUAGUAUUUAGUAA | 0.074 ± 0.015 | 
14 | UCCUGCUACAGCAUCCAUAGUAUUUAGUUA | 0.244 ± 0.047 | 
15 | AGGAGGUACAGCUUGCAUAGUAUUUAGUUA |  | 0.0721 ± 0.011
16 | UCCUGGAUGUCGAACGUUAGUAUUUAGUUU [g2:g13:cont:t1U] | < 0.0001 | 
17 | UCCUCCUACAGCUUGCAUAGUAUUAACAAA | 0.396 ± 0.056 | 
18 | UCCUGGAUGUGCUAGCAUAGUAUUUAGAUA | 0.0175 ± 0.0055 | 
19 | UCCACCAACAGCUUGCAUAGUAUUUACAAA | 0.339 ± 0.047 | 
20 | UCCUGGAUGUGGUUGCAAAGUAUUUAGUUA | 0.00806 ± 0.0043 | 

Row | Sequence | pre-steady-state target cleavage rate [1] | pre-steady-state target cleavage rate [2]
21 | UCCUGGAUGACGAUGCAUAGUAUUUAGUUA | 0.0161 ± 0.0045 | 
22 | UCCUGGAUGUCGAACGUAUCUAAUUAGUAA |  | < 0.0001
23 | UCCUGGAUGUCGUUUCAUAGUAUUUAGUUA | 0.0189 ± 0.0048 | 
24 | UCCUGGAUGUCGAACCAUAGUAUUUAGCUA |  | < 0.0001
25 | UGGACCUACAGCUAGCAUAGUAUUUAGUUA |  | 0.0334 ± 0.0077
26 | UCCUGGAUGUCGAACGUAAGUAUUUGGUUA |  | < 0.0001
27 | UGUACCUACAGCUUGCAUAGUAUUUAGUUA |  | 0.0875 ± 0.013
28 | AGGUCGUACAGCUUGCAUAGUAUUUAGUUA |  | 0.0817 ± 0.012
29 | UCCACCUAGUCCUUGCAUAGUAUUUACAAA | 0.127 ± 0.03 | 
30 | UCCUCCUACAGCUUGCAUAGUAUUUACAAA | 0.361 ± 0.044 | 
31 | UCCUGGAUCAGCUUGCAUAGUAAAAAGUAA | 0.0113 ± 0.0058 | 
32 | UCCUGGAACAGCUUGCAUAGUAAUUUCAAA | 0.029 ± 0.012 | 
33 | AGGACCUACAGCUUGCUAUGUAUUUAGUAA | 0.131 ± 0.026 | 
34 | UGGACCUACAGGAAGCAUAGUAUUUUCAAA | 0.0254 ± 0.008 | 
35 | UCCUCCUAGAGCUUGCAUAGUAUUUACAAA | 0.23 ± 0.046 | 
36 | UCCUCCUACAGCUUGCAUAGUAUAUACAAA | 0.267 ± 0.044 | 
37 | UCGACCUACUCGUUGCAUAGUAUUUACAAA | 0.165 ± 0.025 | 
38 | UCCUCCUACAGCUUGCUAGUAUUUAGUUA | 0.0615 ± 0.017 | 
39 | UCCUGGUACAGGUUGCAUAGUAUUUUCAAA | 0.144 ± 0.04 | 
40 | AGGACCUACAGCUUGCAAUCUAUUUAGUAA | 0.104 ± 0.025 | 

Row | Sequence | pre-steady-state target cleavage rate [1] | pre-steady-state target cleavage rate [2]
41 | UCCUGGAUGUCGAACGUUAGUAUUUGUUA |  | < 0.0001
42 | UCCUGGAUGAGCUUGCCAUAGUAUUUAGUUA | 0.019 ± 0.0052 | 
43 | UCCUGGAUGUGCAUGGAUAGUAUUUAGUUA | 0.0483 ± 0.008 | 
44 | UCCUCCUACAGCUUGCAUUAGUAUUUAGUUA | 0.0284 ± 0.013 | 
45 | UCCUGGAUGUCCUUGCUUAGUAUUUAGUAA | 0.00726 ± 0.004 | 
46 | UCCUCCUACAGCUUCCAUAGUAUUUAGAUA | 0.0587 ± 0.021 | 
47 | UCCACCUACACGUUGCAUAGUAUUUUCAAA | 0.22 ± 0.036 | 
48 | UCCUGGAUGUCCAUGCAUACUAUUUAGUUA | 0.00672 ± 0.0046 | 
49 | UCCUGGAUGUCCUUGCAUAGUAUAAUGUUA | 0.0139 ± 0.0063 | 
50 | UCGACCUACAGCUUGCAUAGUAUUUUCAAA [g6:g28:cont:t1A] | 0.463 ± 0.056 | 
51 | UCCUGGAUGUCGAACGUAUGUUUUUAGAUA | < 0.0001 | 
52 | UCCUGGAUGUCGAUGCAUAGUAUUUCGUUA | 0.00613 ± 0.004 | 
53 | UCCUGGAUCAGCUUGCUAUAGUAUUUAGUUA | 0.00584 ± 0.0043 | 
54 | UCCUGCUACAGCUUGCUAAGUAUUUAGUAA | 0.107 ± 0.022 | 
55 | UCGACCUACAGCUUGCAUAGUAUAUAGAAA | 0.391 ± 0.051 | 
56 | UCCUGCUACACGAUGCAUAGUAUUUACAAA | 0.0817 ± 0.025 | 
57 | UCCUCCUACAGCUUGCAAUGUAUUUUCAAA | 0.0383 ± 0.01 | 
58 | UCCUGCUACAGCUUGCAUAGGUAUUUAGUUA | 0.00816 ± 0.005 | 
59 | UCCUGGAUGUCGAACCUAAGUAUUUAGUUA | < 0.0001 | 
60 | UCCUGGUACAGCUUGCUUAGUAUUUUCAAA | 0.0596 ± 0.018 | 
